From patent publication US11718633B2, “Indole compounds, process for the preparation and use thereof” (priority 2018, dated 2023)

Description: 10 μM of standard solution is prepared in DMSO, 5 μM of working solution is prepared in DMSO from the standard solution. 495 μL of Buffer (1.2, 2.2, 4.5, 7.4 and 10.2 pH) is transferred in a pre labelled micro centrifuge tube. 5 μL of working solution (5 μM) is added in to the test system. Samples are Vortexed in a table top vortexer for 5 min and centrifuged at 14000 RPM for 5 minutes; supernatant samples are subjected to HPLC analysis.

Compound	aqueous solubility at the acidic pH (in words)
CC1(C)CCN(NC(=O)c2cc3c(F)cc(F)cc3[nH]2)CC1 [Compound (l), N-(4,4-dimethylpiperidin-1-yl)-4,6-difluoro-1H-indole-2-carboxamide]	good aqueous solubility
CC1(C)CCN(NC(=O)c2cc3c(Cl)cc(Cl)cc3[nH]2)CC1.Cl [Compound (n), 4,6-dichloro-N-(4,4-dimethylpiperidin-1-yl)-1H-indole-2-carboxamide hydrochloride]	good aqueous solubility
CC1(C)CCN(NC(=O)c2cc3c(Cl)cc(Cl)cc3[nH]2)CC1 [Compound (h), 4,6-dichloro-N-(4,4-dimethylpiperidin-1-yl)-1H-indole-2-carboxamide]	good aqueous solubility
